Data on 167 variants can be found in the RNAGym collection of RNA variant scans (doi:10.7554/elife.90254).

Read counts are not given, so values of variants with three or more changes are uncertain.

B1: OR4K15 (parent)
chain: GUUAACGGUCAUAGGCCAUGGAAACUAGGAGCACCAUUUCGCUGCCAGUGAAGAAAUGAACAAAGAAAAUCUGGGCCAGGCAGGCAUCAAAAGAAAUAGUCUUGCGCUCAACCAGAAAGUCUGUAAUCAUUUUAAGGGUA

This data set covers variants of B1. The experiment in a line: self-cleavage, relative activity (ratio to wild type); higher = more cleavage; in vitro, sequencing; the parent is a self-cleaving ribozyme.
For A5G A64G A98G U108C U139C, the self-cleavage stood at 0.11. As for A5C A96G A116G, the figure is 1.29; as for A5G A22G A59U, 0.94; as for A5G A13G U26C U37A A94G, 0.81. As for A5G A23C U39C U43C U127C, the figure is 1.11.

For A5U A63G A117G, the self-cleavage is 1.57. The value for C6U A110G U131G was 0.16; that for A5G U72C U102C was 0.77. In the case of A5C A51U A89G A117G A125U, the self-cleavage worked out at 1.45. As for A5G U9C A33G, the figure is 1.52; as for A5U C10A U19G A82G, 0.48; as for A5G A47U A56G U87C, 0.73.

In the case of A5G C105U U124C, the self-cleavage was determined as 0.12. Take A5G U12A A51G A82G A94U U103C: the self-cleavage was found to be 1.78. Turning to A5U U39C A47G A54G, the self-cleavage came out at 0.44. The value for A5G U43C A51G A92G was 1.02; that for A5G U38C A64G A68G U108C was 0.09; that for A5G U38A A52G A68G U87A was 0.62. As for C6U U57C A86U A94G A117G, the figure is 0.53. On to A5G U19C A54G, for which the self-cleavage came to 0.77. Turning to A5U A36U A64G U87C, the self-cleavage came to 1.34. As for A5G A23G A51G, the figure is 0.65; as for A5G U72C A116G, 0.05; as for A5U U9A A59G U100C U122A U132C, 2.15. In the case of A5C U43A A96G U108A, the self-cleavage was 0.02. Regarding A5U A23U A96G, the self-cleavage amounted to 1.08. As for A5U A24G U39A A52G, the figure is 0.89.

Consider A5G U43A U57C U70C U87C A117G, for which the self-cleavage came to 0.73. As to C6U A60G A64U A67G U72A, the self-cleavage came out at 0.3.

With A5G U9C U43C A66U A94G, the self-cleavage was determined as 0.69. The value for A5U U39A G44U U87C U120C was 0.71. The value for A5G A54G U131C was 1.6; that for A5G U57C A116G was 0.33; that for A5G A13G A60U was 0.7. Regarding A5G A36C A55G, the self-cleavage is 0.42. Take A5G A23G A33G A67G U97C U108C: the self-cleavage came out at 0.04.

For A5U A13G A135U, the self-cleavage amounted to 0.

For the variant A5G A52G A91U C128A, the self-cleavage amounted to 1.54.

For the variant A5U G65A A111G, the self-cleavage is 0.13.

With A5U A56G A59G A67G U100C, the self-cleavage stood at 1.29.

On to A5G U87C G104A C112U, for which the self-cleavage was 0.03. The value for A5G A86G A89U U139A was 1.07; that for A5U A24U U127C was 1.64. As for A5G A11G G20A U43C A64G U87C A89C, the figure is 1.48.

For the variant A5U A30G G83A A125G U132C, the self-cleavage was 0.55. Consider C6U A47G A66G, for which the self-cleavage stood at 1.16. The value for A5U A51G A125G was 0.47; that for A5G A69G A117G was 1.83. The value for A5G G7U U37A A114U was 0.46; that for A5G A59G U72A U132C was 0.16. As for C6A U122G U132C, the figure is 2. With A5G U12C U43A U57A, the self-cleavage came to 0.73. Consider C6U U9C U102C, for which the self-cleavage worked out at 1.02. As for A5G A118G U131C, the figure is 0.34. As for A5G A23G A90G U130C, the figure is 0.36; as for C6U A18G A47G, 1.18; as for A5U U39A A69C U100A A125G, 0.57.

In the case of A5U A62U A63G A126G, the self-cleavage was found to be 1.24. The value for A5G U102C U127C was 0.47; that for C6A A18G A67G was 0.48; that for A5G A55G A63G A78G A92C was 0.1. The value for A5G A67G U97C U127C was 0.05. The value for A5G U49A A51G A126G was 2.03; that for A5G A23G A56G A68G U87C A135U was 0.83; that for A5C U49C A98U was 1.45. Regarding A5G A30G U103C, the self-cleavage is 1.43. Turning to A5G A23U A54U A60G, the self-cleavage is 0.88. As for A5C A24U A51U, the self-cleavage is 0.5.

For the variant A5G U57C A63G A118G U127C A129G, the self-cleavage is 0.12. As for A5G A78G U97C, the self-cleavage is 0.7. The value for A5U A13U A47G A118G G137A was 1.78. As for C6U A116C U130C, the figure is 0.05; as for A5G U100C U124C A125G, 1.42. Consider A5G U9C G41A A51G A56G G106A A114G, for which the self-cleavage was found to be 0.07. As for A5U A22G A89G, the figure is 0.9. As for C6A U43A A96G, the figure is 0; as for A5G U38A A51G A95G A111G, 0.05; as for G7A A11G A52G U102C, 1.21. Turning to A5G A47G A114U A135G, the self-cleavage stood at 0.04. The value for C6U A51G U102C C107U A118G was 0.01. As for A5G A24G A30G A66G C113U, the figure is 0.28; as for A5G A36G C113U, 0.18; as for A5G A30G U70C A111G A116G U120C, 0.03. In the case of A5G A86G A95G, the self-cleavage was found to be 1.42. In the case of A5G U9C U87A A94G, the self-cleavage was found to be 0.8. As for A5G A47C A129U, the figure is 1.12; as for A5G C107U U130C, 0; as for A5G A33G A68G A94G U124A, 0.76.

As to A5U U103C G106A A110G A116G U127C, the self-cleavage was determined as 0.02.

As for A5G U43C A64G C112A, the self-cleavage turned out to be 0.05.

A5G A27G U57C A118G: the self-cleavage was 0.69.

For the variant A5U A18G U43A A91G, the self-cleavage was 1.22. The value for C6U A30G A52G A60G U102C A114U was 0.26. As for A5U U19C A23U A64G U72A A116G, the figure is 0.08. As for A5G A59G A140U, the figure is 1.03. For the variant A5G A13U A54G C105U, the self-cleavage turned out to be 0.24.

Regarding C6U A59G A63G A89C, the self-cleavage was 1.16. As for A5G U37C A51G A82G A135G, the figure is 0.52; as for A5G A30U U37C A135U, 0.88. In the case of A5U A56G A117G U122C, the self-cleavage is 1.59. As for A5C G7A U37C A51G A110U G136A, the self-cleavage turned out to be 1.04. With A5G A18G A54U U72A U87C, the self-cleavage was 0.2.

For A5G G28A C40A U131C, the self-cleavage was found to be 1.47.

As for A5G U38C G58A A94G A98G, the self-cleavage was found to be 0.5.

On to A5G A52U A68G A96G A118G A125G, for which the self-cleavage amounted to 0.16. The value for A5G A62G A68G U132A was 0.18; that for A5G U87C A89U U127C was 1.44; that for A5G U12C G41A A60G was 0.98. In the case of A5G A52U A64G A82G, the self-cleavage is 0.71.

A5G A33G A67C U103C U127C: the self-cleavage worked out at 0.81. The value for C6U A54G U57C was 1.02; that for A5G A30G U108C U127C U132A was 0.02.

For the variant A5G A66U U124G, the self-cleavage amounted to 0.66. As for A5G A47G U49C A69G, the figure is 0.55; as for A5G U19C A118G U124C, 0.52; as for A5G A33G U72A A90U A96G, 0.41. The value for A5G A11G A68G was 0.68; that for A5U A63G A69G A86U A92G was 1.46; that for C6U A118U U131C was 0. As for A5G U39A A52G G119A, the self-cleavage was 1.53. Take A5U A66G U102C: the self-cleavage came to 1.56. With A5G U38C A98G, the self-cleavage is 1.28.

On to A5G A30G U43C A95G A96G U103C U127C, for which the self-cleavage came to 0.73. Turning to A5U A22G U57C, the self-cleavage is 0.56. As for A5G C76U U108C, the figure is 0.08; as for A5G A24G A134G, 0.81. For the variant A5G A67G A94G A117G, the self-cleavage was 0.55. Turning to A5U U9C A24G A33G A86G, the self-cleavage was found to be 1.44. A5G A55U U72A: the self-cleavage is 0.48. With A5G A69G A78G A94G U132C, the self-cleavage came to 0.17. As for A5G G7U A24G A68G A78G, the self-cleavage stood at 0.36. As for C6U A30G A91C A140G, the figure is 1.05. With C6U A22G U108C, the self-cleavage was found to be 0.04.

With A5G G20A A82U, the self-cleavage stood at 0.11. The value for A5G A60G A118G was 0.82. The value for A5G U43C A55G A69G U72A was 0.22; that for C6G C16U U19C A86G was 1.35; that for A5U A24U A78G was 0.44.

A5G A24G A30U U72C: the self-cleavage is 0.38. For the variant A5G G14A A22G A91G A92G, the self-cleavage was 0.31. The value for A5G A55G A64U was 0.5. The value for A5G A33G A60G A91G was 0.66; that for A5U G74A G106A U133C was 0.05; that for C6U A116G U120C A126G A140U was 0.34. As for A5G A23G A78U A95G, the figure is 1.37; as for A5G A47G A51U A55G, 0.54. For the variant A5U A27U U57C C77A, the self-cleavage came out at 1.14. As for A5G A24G A55G U70C U132C, the figure is 0.7; as for A5G A30G U122C, 1.34. The value for C6U U49A U127A was 1.81. Take A5G U19A U97A C121U: the self-cleavage is 1.27. In the case of A5G A67G A126G U131C, the self-cleavage worked out at 0.51. As for A5G U9C A30U A55G C105G A110U, the figure is 0.04. The value for A5G A54G U102A was 0.42; that for A5G A13G A117G was 0.7. A5G A11U A36G: the self-cleavage was 1.52. The value for A5G A11G A33G A86G A95G was 1.51.

Take A5G A22G C76A U130C: the self-cleavage is 0.28. As to A5G U37A U38A U124C, the self-cleavage stood at 1.02. For the variant A5U U37C A59G U103C, the self-cleavage amounted to 0.81. C6U U38C U120C: the self-cleavage came to 0.68.

Consider A5G A33G U37C U38C U39C A62G A129G, for which the self-cleavage is 1.2. As for A5G A60G A69G, the figure is 0.92. As for A5G U72C A111U, the figure is 0.05; as for A5G A69U A96U, 1.04.

On to C6A U19C A94G, for which the self-cleavage is 1.32. Turning to A5G A24C U39A, the self-cleavage amounted to 1.25.
